Patent US9284335B2, “Substituted pyrido[3,2-e][1,2,4]triazolo[1,5-c]pyrimidines, pyrido[2,3-e][1,2,4]triazolo[1,5-c]pyrimidines and/or [1,2,4]triazolo[1,5-c]pteridines for treatment of central nervous system diseases and disorders” (DART NEUROSCIENCE (CAYMAN) LTD., priority 2012, dated 2016)

target: full-length recombinant NH-terminal GST tagged human PDE1b enzyme (Homo sapiens, UniProt Q01064); assay: PDE1b inhibitory assay (IMAP TR-FRET); format: biochemical; details: negative log of half-maximal molar inhibitory concentration; FAM-cAMP 200 nM; reported as bins; read-out: PDE1b (pEC50) (converted)

Compound | EC50 [µM]
COc1ccc(Cn2c(=O)n3ncnc3c3cc(CN4CC(C)OCC4C)cnc32)cc1 (centres unmarked) [Example 41, 9-((2,5-Dimethylmorpholino)methyl)-6-(4-methoxybenzyl)pyrido[3,2-e][1,2,4]triazolo[1,5-c]pyrimidin-5(6H)-one] | < 0.1
C[C@@H]1CN(Cc2cnc3c(c2)c2ncnn2c(=O)n3Cc2ccc(Cl)c(OC(F)(F)F)c2)C[C@H](C)O1 [Example 152] | > 10
COc1ccc(Cn2c(=O)n3ncnc3c3cc(CN4C[C@@H](C)O[C@@H](C)C4)cnc32)c(Br)c1 [Example 102] | 1 to 10
CC(C)c1ccc(Cn2c(=O)n3ncnc3c3cc(CN4C[C@@H](C)O[C@@H](C)C4)cnc32)cc1 [Example 125, 9-(((2S,6R)-2,6-Dimethylmorpholino)methyl)-6-(4-isopropylbenzyl)pyrido[3,2-e][1,2,4]triazolo[1,5-c]pyrimidin-5(6H)-one] | 1 to 10
COc1ccc(Cn2c(=O)n3ncnc3c3cc(CN4CCN(C(=O)C(F)(F)F)CC4)cnc32)cc1 [Example 70, 6-(4-Methoxybenzyl)-9-((4-(2,2,2-trifluoroacetyl)piperazin-1-yl)methyl)pyrido[3,2-e][1,2,4]triazolo[1,5-c]pyrimidin-5(6H)-one] | 0.1 to 1
COc1cc(Cn2c(=O)n3ncnc3c3cc(CN4C[C@@H](C)O[C@@H](C)C4)cnc32)ccc1F [Example 137] | > 10
COCCN(C)Cc1cnc2c(c1)c1ncnn1c(=O)n2Cc1ccc(OC)cc1 [Example 61] | 0.1 to 1
COc1ccc(Cn2c(=O)n3ncnc3c3ncc(CN4CCN(C)CC4)cc32)cc1 [Example 56] | 1 to 10
COc1ccc(Cn2c(=O)n3ncnc3c3cc(CN4CCCN(C(C)=O)CC4)cnc32)cc1 [Example 50, 9-((4-Acetyl-1,4-diazepan-1-yl)methyl)-6-(4-methoxybenzyl)pyrido[3,2-e][1,2,4]triazolo[1,5-c]pyrimidin-5(6H)-one] | 0.1 to 1
COc1ccc(Cn2c(=O)n3ncnc3c3cc(-c4ccc(OC)c(OC)c4)cnc32)cc1 [Example 5, 9-(3,4-Dimethoxyphenyl)-6-(4-methoxybenzyl)pyrido[3,2-e][1,2,4]triazolo[1,5-c]pyrimidin-5(6H)-one] | < 0.1
C[C@@H]1CN(Cc2cnc3c(c2)c2ncnn2c(=O)n3Cc2ccc(OC(F)F)cc2F)C[C@H](C)O1 [Example 106] | 0.1 to 1
C=C(OCC)c1cnc2c(c1)c1ncnn1c(=O)n2Cc1ccc(OC)cc1 [Example 32, 9-(1-Ethoxyvinyl)-6-(4-methoxybenzyl)pyrido[3,2-e][1,2,4]triazolo[1,5-c]pyrimidin-5(6H)-one] | 0.1 to 1
C[C@@H]1CN(Cc2cnc3c(c2)c2ncnn2c(=O)n3Cc2ccc(F)c(Cl)c2F)C[C@H](C)O1 [Example 140] | 0.1 to 1
Cc1ccc(Cn2c(=O)n3ncnc3c3cc(CN4C[C@@H](C)O[C@@H](C)C4)cnc32)cc1C [Example 158] | 0.1 to 1
COc1ccc(Cn2c(=O)n3ncnc3c3cc(CN4C[C@@H](C)O[C@@H](C)C4)cnc32)c(F)c1 [Example 93, 9-(((2S,6R)-2,6-Dimethylmorpholino)methyl)-6-(2-fluoro-4-methoxybenzyl)pyrido[3,2-e][1,2,4]triazolo[1,5-c]pyrimidin-5(6H)-one] | < 0.1
Cc1cc(Cn2c(=O)n3ncnc3c3cc(CN4C[C@@H](C)O[C@@H](C)C4)cnc32)cc(C)c1F [Example 148] | > 10
COc1ccc(Cn2c(=O)n3ncnc3c3cc(CN4CC5CC4CO5)cnc32)cc1 (centres unmarked) [Example 34, 9-(2-Oxa-5-azabicyclo[2.2.1]heptan-5-ylmethyl)-6-(4-methoxybenzyl)pyrido[3,2-e][1,2,4]triazolo[1,5-c]pyrimidin-5(6H)-one] | 0.1 to 1
COc1ccc(Cn2c(=O)n3ncnc3c3cc(CN4C[C@H](C)OC[C@@H]4C)cnc32)cc1 [Example 63, 9-(((2S,5S)-2,5-Dimethylmorpholino)methyl)-6-(4-methoxybenzyl)pyrido[3,2-e][1,2,4]triazolo[1,5-c]pyrimidin-5(6H)-one] | < 0.1
C[C@@H]1CN(Cc2cnc3c(c2)c2ncnn2c(=O)n3Cc2cc(F)c(Cl)cc2Cl)C[C@H](C)O1 [Example 143] | 1 to 10
C[C@@H]1CN(Cc2cnc3c(c2)c2ncnn2c(=O)n3Cc2ccc(C#N)cc2)C[C@H](C)O1 [Example 95, 4-((9-(((2S,6R)-2,6-Dimethylmorpholino)methyl)-5-oxopyrido[3,2-e][1,2,4]triazolo[1,5-c]pyrimidin-6(5H)-yl)methyl)benzonitrile] | > 10
COc1ccc(Cn2c(=O)n3ncnc3c3cc(CN4CCCCC4)cnc32)cc1 [Example 22, 6-(4-Methoxybenzyl)-9-(piperidin-1-ylmethyl)pyrido[3,2-e][1,2,4]triazolo[1,5-c]pyrimidin-5(6H)-one] | 0.1 to 1

Compound | EC50 [µM]
COc1ccc(Cn2c(=O)n3ncnc3c3cc(C(N4CCOCC4)C(F)(F)F)cnc32)cc1 (centres unmarked) [Example 88, 6-(4-Methoxybenzyl)-9-(2,2,2-trifluoro-1-morpholinoethyl)pyrido[3,2-e][1,2,4]triazolo[1,5-c]pyrimidin-5(6H)-one] | < 0.1
COc1ccc(Cn2c(=O)n3ncnc3c3cc(CN4CCN(C)CC4)cnc32)cc1 [Example 37] | 0.1 to 1
COc1ccc(Cn2c(=O)n3ncnc3c3cc(CN4CC(O)C4)cnc32)c(F)c1F [Example 169] | 1 to 10
COc1ccc(Cn2c(=O)n3ncnc3c3ccc(CN4Cc5ccccc5C4)nc32)cc1 [Example 80, 8-(Isoindolin-2-ylmethyl)-6-(4-methoxybenzyl)pyrido[3,2-e][1,2,4]triazolo[1,5-c]pyrimidin-5(6H)-one] | 0.1 to 1
COc1ccc(Cn2c(=O)n3ncnc3c3cc(C(O)CN4CCOCC4)cnc32)cc1 (centres unmarked) [Example 83, 9-(1-Hydroxy-2-morpholinoethyl)-6-(4-methoxybenzyl)pyrido[3,2-e][1,2,4]triazolo[1,5-c]pyrimidin-5(6H)-one] | 0.1 to 1
C[C@@H]1CN(Cc2cnc3c(c2)c2ncnn2c(=O)n3Cc2ccc(F)c(Br)c2)C[C@H](C)O1 [Example 94, 6-(3-Bromo-4-fluorobenzyl)-9-(((2S,6R)-2,6-dimethylmorpholino)methyl)pyrido[3,2-e][1,2,4]triazolo[1,5-c]pyrimidin-5(6H)-one] | 0.1 to 1
COc1ccc(Cn2c(=O)n3ncnc3c3cc(CN4CCN(S(=O)(=O)N(C)C)CC4)cnc32)cc1 [Example 69, 4-((6-(4-Methoxybenzyl)-5-oxo-5,6-dihydropyrido[3,2-e][1,2,4]triazolo[1,5-c]pyrimidin-9-yl)methyl)-N,N-dimethylpiperazine-1-sulfonamide] | < 0.1
COc1ccc(Cn2c(=O)n3ncnc3c3cc(CN4C[C@@H](C)O[C@@H](C)C4)cnc32)cc1F [Example 92, 9-(((2S,6R)-2,6-Dimethylmorpholino)methyl)-6-(3-fluoro-4-methoxybenzyl)pyrido[3,2-e][1,2,4]triazolo[1,5-c]pyrimidin-5(6H)-one] | 0.1 to 1
COc1ccc(Cn2c(=O)n3ncnc3c3cc(CN4C[C@@H](C)O[C@@H](C)C4)cnc32)cc1C [Example 132, 9-(((2S,6R)-2,6-Dimethylmorpholino)methyl)-6-(4-methoxy-3-methylbenzyl)pyrido[3,2-e][1,2,4]triazolo[1,5-c]pyrimidin-5(6H)-one] | 0.1 to 1
COc1ccc(Cn2c(=O)n3ncnc3c3cc(N4CCN(C5CC5)CC4)cnc32)cc1 [Example 9, 9-(4-cyclopropylpiperazin-1-yl)-6-(4-methoxybenzyl)pyrido[3,2-e][1,2,4]triazolo[1,5-c]pyrimidin-5(6H)-one] | 0.1 to 1
COc1ccc(Cn2c(=O)n3ncnc3c3cc(CN4CCCN(C)CC4)cnc32)cc1 [Example 48, 6-(4-Methoxybenzyl)-9-((4-methyl-1,4-diazepan-1-yl)methyl)pyrido[3,2-e][1,2,4]triazolo[1,5-c]pyrimidin-5(6H)-one] | 1 to 10
COc1ccc(Cn2c(=O)n3ncnc3c3cc(-c4cccnc4OC)cnc32)cc1 [Example 7, 6-(4-Methoxybenzyl)-9-(2-methoxypyridin-3-yl)pyrido[3,2-e][1,2,4]triazolo[1,5-c]pyrimidin-5(6H)-one] | < 0.1
COc1ccc(Cn2c(=O)n3ncnc3c3cc(CN(C)C)cnc32)cc1 [Example 35, 9-((Dimethylamino)methyl)-6-(4-methoxybenzyl)pyrido[3,2-e][1,2,4]triazolo[1,5-c]pyrimidin-5(6H)-one] | 1 to 10
Cc1ccccc1Cn1c(=O)n2ncnc2c2cc(CN3C[C@@H](C)O[C@@H](C)C3)cnc21 [Example 99, 9-(((2S,6R)-2,6-Dimethylmorpholino)methyl)-6-(2-methylbenzyl)pyrido[3,2-e][1,2,4]triazolo[1,5-c]pyrimidin-5(6H)-one] | 1 to 10
COc1ccc(Cn2c(=O)n3ncnc3c3nc(CN4C[C@@H](C)O[C@@H](C)C4)cnc32)cc1 [Example 47, 9-(((2S,6R)-2,6-Dimethylmorpholino)methyl)-6-(4-methoxybenzyl)-[1,2,4]triazolo[1,5-c]pteridin-5(6H)-one] | 0.1 to 1
COc1ccc(Cn2c(=O)n3ncnc3c3ccc(CNCc4ccccc4)nc32)cc1 [Example 78, 8-((Benzylamino)methyl)-6-(4-methoxybenzyl)pyrido[3,2-e][1,2,4]triazolo[1,5-c]pyrimidin-5(6H)-one] | 0.1 to 1
COCCN(Cc1cnc2c(c1)c1ncnn1c(=O)n2Cc1ccc(OC)cc1)C(C)C [Example 55, 9-((Isopropyl(2-methoxyethyl)amino)methyl)-6-(4-methoxybenzyl)pyrido[3,2-e][1,2,4]triazolo[1,5-c]pyrimidin-5(6H)-one] | 0.1 to 1
COc1ccc(Cn2c(=O)n3ncnc3c3cc(CCNC(=O)OCc4ccccc4)cnc32)cc1 [Example 20, Benzyl (2-(6-(4-methoxybenzyl)-5-oxo-5,6-dihydropyrido[3,2-e][1,2,4]triazolo[1,5-c]pyrimidin-9-yl)ethyl)carbamate] | 0.1 to 1
COc1c(F)cc(Cn2c(=O)n3ncnc3c3cc(CN4C[C@@H](C)O[C@@H](C)C4)cnc32)cc1Cl [Example 131] | 0.1 to 1
COc1ccc(Cn2c(=O)n3ncnc3c3cc(C(F)CN4CCOCC4)cnc32)cc1 (centres unmarked) [Example 85, 9-(1-Fluoro-2-morpholinoethyl)-6-(4-methoxybenzyl)pyrido[3,2-e][1,2,4]triazolo[1,5-c]pyrimidin-5(6H)-one] | 0.1 to 1
